Molecules are shown by their SMILES. Hit rate of the full screen: of about 50,000 compounds, about 800 (1.6%) showed an effect of 50% or more. Some of the results follow.

The test deals with Bcl-2-like protein 10 (Homo sapiens) (UniProt Q9HD36). Briefly: TR3 peptide-Bcl-B binding displacers, biochemical primary FP assay, phenotype converters (AID 1240).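 Also: 0% = Bcl-B with tracer peptide and DMSO and 100% = tracer peptide lacking Bcl-B.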 The conditions noted are these: GST-Bcl-B / FITC-TR3 peptide fluorescence polarization; stronger effect = higher value; compound at 3.75 mg/L. For orientation: In fluorescence polarisation assays a small probe gives low polarisation when free and higher when bound to something large.
UniProt Q9HD36, sequence (Q9HD36 whole entry, looked up): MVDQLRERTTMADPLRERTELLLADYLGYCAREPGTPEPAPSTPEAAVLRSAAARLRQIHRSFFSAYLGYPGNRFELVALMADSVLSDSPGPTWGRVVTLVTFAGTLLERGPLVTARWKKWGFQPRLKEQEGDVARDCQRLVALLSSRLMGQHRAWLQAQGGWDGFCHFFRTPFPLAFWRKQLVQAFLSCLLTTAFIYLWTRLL
Regarding `O=C(NN1C(=O)/C(=C/c2ccc(O)cc2)SC1=S)c1ccccc1O`, the displacement was found to be 1.9%.

Values taken from PubChem BioAssay AID1240 (Sanford-Burnham Center for Chemical Genomics, 2008).
